PubChem BioAssay (Tox21)
Where “and” joins values, the source holds several entries; their conditions need not be identical. Equal entries are not always repeated. This list was built around the results that the source calls inconclusive (neither active nor inactive); the mix of calls is not that of the screen. For some of these results: Potencies beside an inconclusive call are fits to weak or partial responses and may not hold up. Where a structure was tested more than once in an assay, its records may differ in their call. Calls of active or inactive are those of the source. Unless noted, calls follow the shape of the dose curve; as a rule, active = well fitted curve in the direction sought with a large enough effect in the repeat runs; inconclusive = weak or mixed curves; inactive = no such curve, though single readings can be large; an effect the other way counts as inactive or inconclusive.

Legend:
[1] = qHTS assay to identify small molecule antagonists of the peroxisome proliferator-activated receptor delta (PPARd) signaling pathway - cell viability counter screen (AID 743213); settings: PPARd-bla HEK293H viability, CellTiter-Glo luminescence, 17 h; viability change, negative = cytotoxic: at 62 µM (top of the series) unless noted; also: nearly all actives have a fitted effect of over 50% in size; also: potency is read from the fitted curve at half-maximal effect
In short: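 Cytotoxicity counter screen: CellTiter-Glo luminescence read 30 min after addition, in the same wells as the reporter assay. There, PPARd UAS-bla HEK293H cells (3000/well) were treated 17 h at 37 C with compound and 300 nM L165041.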

[2] = qHTS assay to identify small molecule agonists of the farnesoid-X-receptor (FXR) signaling pathway - cell viability counter screen (AID 743218); settings: FXR-bla HEK293T viability, CellTiter-Glo luminescence, 16 h; viability change, negative = cytotoxic: at 62.6 µM (top of the series) unless noted; also: nearly all actives have a fitted effect of over 45% in size; also: potency is read from the fitted curve at half-maximal effect
In short: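 After 16 h at 37 C with test compounds, FXR-bla HEK 293T cells were given LiveBLAzer B/G substrate for 2 h at RT and then CellTiter-Glo; luminescence was taken after 30 min.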

[3] = qHTS assay to identify small molecule antagonists of the farnesoid-X-receptor (FXR) signaling pathway - cell viability counter screen (AID 743221; active = well fitted cell-killing curve with a large enough effect in the repeat runs, not every such curve was filed as active; inconclusive = weak or mixed curves, or effect the other way; inactive = no such curve, though single readings can be large or run the other way; also: nearly all actives have a fitted effect of over 50% in size; also: potency is read from the fitted curve at half-maximal effect; as to activity change, negative = cytotoxicity: % is scaled to controls: 0 for no effect and ±100 for the full control effect); settings: FXR-bla HEK293T viability, CellTiter-Glo luminescence, 16 h; activity change, negative = cytotoxicity: at 62.6 µM (top of the series)
In short: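 Quantitative HTS of the Tox21 10K library run in parallel with the beta-lactamase reporter read. HEK 293T cells carrying a UAS-driven bla reporter got compound and 50 uM CDCA (final) for 16 h; ATP-based luminescence followed.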

[4] = molecular target: Vitamin D3 receptor (Homo sapiens) (UniProt P11473); test: qHTS assay to identify small molecule agonists of the vitamin D receptor (VDR) signaling pathway (AID 743222; calls by dose curve; also: potency is read from the fitted curve at half-maximal effect; as to activation: % is scaled to controls: 0 for no effect and ±100 for the full control effect); settings: HEK293T VDR-UAS-bla, beta-lactamase FRET ratio, 16 h; activation: at 63.5 µM (top of the series) unless noted
Sequence of UniProt P11473 (P11473 whole entry, looked up): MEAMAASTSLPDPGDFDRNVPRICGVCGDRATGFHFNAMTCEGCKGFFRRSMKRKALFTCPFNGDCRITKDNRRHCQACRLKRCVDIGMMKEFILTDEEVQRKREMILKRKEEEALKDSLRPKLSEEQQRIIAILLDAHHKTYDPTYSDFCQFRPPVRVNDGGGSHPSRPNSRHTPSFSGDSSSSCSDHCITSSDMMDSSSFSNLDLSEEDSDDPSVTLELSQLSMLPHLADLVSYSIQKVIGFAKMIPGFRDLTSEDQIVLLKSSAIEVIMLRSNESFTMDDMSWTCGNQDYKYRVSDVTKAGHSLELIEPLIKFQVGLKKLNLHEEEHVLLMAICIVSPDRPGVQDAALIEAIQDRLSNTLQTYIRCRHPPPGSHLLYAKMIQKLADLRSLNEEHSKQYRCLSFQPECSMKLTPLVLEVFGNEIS
In short: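 VDR-bla cells were seeded, left 4 h, treated with compounds in DMSO for 16 h, incubated 2 h at RT with B/G FRET substrate, and read for fluorescence.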

[5] = qHTS assay to identify small molecule antagonists of the vitamin D receptor (VDR) signaling pathway - cell viability counter screen (AID 743225); settings: VDR-bla HEK293T viability, CellTiter-Glo luminescence, 16 h; viability change, negative = cytotoxic: at 61 µM (top of the series) unless noted; also: nearly all actives have a fitted effect of over 50% in size; also: potency is read from the fitted curve at half-maximal effect; as to viability change, negative = cytotoxic: % is scaled to controls: 0 for no effect and ±100 for the full control effect
In short: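 Cells (VDR-UAS-bla HEK 293T) are plated, rested 4 h at 37C, dosed with compound and 3 nM final 1-alpha,25-dihydroxy vitamin D3, and incubated 16 h. Viability is taken from CellTiter-Glo luminescence in the reporter wells.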

[6] = qHTS assay to identify small molecule agonists of the endoplasmic reticulum stress response signaling pathway (AID 1159516; active = well fitted activation curve with a large enough effect in the signal ratio in the repeat runs, not every such curve was filed as active; inconclusive = weak or mixed curves, or effect the other way; the % refers to the signal ratio; also: potency is read from the fitted curve at half-maximal effect); settings: ESRE-bla HeLa, ER stress beta-lactamase reporter, 5 h; activation: at 61 µM (top of the series) unless noted
In short: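 Reporter HeLa cells (ESRE-beta-lactamase) underwent 5 hr compound incubation at 37 C and 5% CO2 in quantitative HTS format. Detection followed 2 hr of FRET substrate loading at room temperature.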

[7] = molecular target: Nuclear receptor ROR-gamma (Homo sapiens) (UniProt P51449); test: qHTS assay to identify small molecule antagonists of the retinoid-related orphan receptor gamma (ROR-gamma) signaling pathway (AID 1159521; also: nearly all actives have a fitted effect of over 50% in size; also: potency is read from the fitted curve at half-maximal effect)
In short: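 RORγ antagonism is scored from reduced reporter luminescence in Tet-on CHO cells. Induction used 1 uM final doxycycline hyclate for 16 h at 37 C, following a 2 h compound exposure.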

[8] = molecular target: Peroxisome proliferator-activated receptor delta (Homo sapiens) (UniProt Q03181); test: qHTS assay to identify small molecule antagonists of the peroxisome proliferator-activated receptor delta (PPARd) signaling pathway (AID 743215; active = well fitted inhibition curve with a large enough effect in the signal ratio in the repeat runs, not every such curve was filed as active; inconclusive = weak or mixed curves, or effect the other way; inactive = no such curve, though single readings can be large or run the other way; the % refers to the signal ratio;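 also: cells stimulated with agonist L165041 at 300 nM final during compound exposure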; also: potency is read from the fitted curve at half-maximal effect); settings: HEK293H PPARd-UAS-bla, beta-lactamase FRET ratio, antagonist, 17 h; ratio activity, negative = inhibition: at 62 µM (top of the series) unless noted
Sequence of UniProt Q03181 (Q03181 whole entry, looked up): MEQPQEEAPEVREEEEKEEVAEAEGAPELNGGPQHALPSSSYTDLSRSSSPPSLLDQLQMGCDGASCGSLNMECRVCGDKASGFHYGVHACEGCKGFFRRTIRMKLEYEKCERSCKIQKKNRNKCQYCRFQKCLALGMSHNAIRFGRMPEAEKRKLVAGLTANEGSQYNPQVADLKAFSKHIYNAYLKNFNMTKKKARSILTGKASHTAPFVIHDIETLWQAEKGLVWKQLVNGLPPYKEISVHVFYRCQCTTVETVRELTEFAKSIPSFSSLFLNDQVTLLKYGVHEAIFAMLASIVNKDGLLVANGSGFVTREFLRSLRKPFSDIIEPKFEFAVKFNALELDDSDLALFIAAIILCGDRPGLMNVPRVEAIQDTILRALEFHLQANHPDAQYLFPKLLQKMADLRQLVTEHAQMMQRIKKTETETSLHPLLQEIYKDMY
In short: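 With L165041 present at 300 nM final, compounds were incubated 17 h at 37 C on PPARd UAS-bla HEK293H cells. A FRET-based beta-lactamase substrate was then applied for 2 h at room temperature and fluorescence intensity recorded.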

[9] = molecular target: Vitamin D3 receptor (Homo sapiens) (UniProt P11473); test: qHTS assay to identify small molecule antagonists of the vitamin D receptor (VDR) signaling pathway (AID 743223; active = well fitted inhibition curve with a large enough effect in the signal ratio in the repeat runs, not every such curve was filed as active; inconclusive = weak or mixed curves, or effect the other way; inactive = no such curve, though single readings can be large or run the other way; the % refers to the signal ratio; also: potency is read from the fitted curve at half-maximal effect); settings: VDR-UAS-bla HEK293T, beta-lactamase FRET ratio, 16 h; activity change, negative = inhibition: at 61 µM (top of the series) unless noted
In short: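 Fluorescence from LiveBLAzer B/G FRET substrate, read after 2 h at room temperature, reflects beta-lactamase reporter activity in VDR-bla cells treated 16 h at 37C with compounds and agonist 1alpha,25-dihydroxyvitamin D3 (3 nM final).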

[10] = qHTS assay to identify small molecule agonists of the AP-1 signaling pathway - cell viability counter screen (AID 1159525; calls by dose curve; also: nearly all actives have a fitted effect of over 55% in size; also: potency is read from the fitted curve at half-maximal effect)
In short: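 ME-180 AP-1-bla, 2500 cells/well, Opti-MEM + 0.5% dialyzed FBS; overnight 37 °C; cpd 15-pt titration, 5 h 37 °C; CellTiter-Glo 30 min RT; luminescence read; normalised to TOAB and DMSO controls.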

[11] = molecular target: Retinoic acid receptor RXR-alpha (Homo sapiens) (UniProt P19793); test: qHTS assay to identify small molecule agonists of the RXR signaling pathway (AID 1159527; calls by dose curve; also: nearly all actives have a fitted effect of over 35% in size; also: potency is read from the fitted curve at half-maximal effect); settings: HEK293T RXRa-UAS-bla, beta-lactamase ratio, 16 h; activation: at 76.8 µM (top of the series) unless noted
Sequence of UniProt P19793 (P19793 whole entry, looked up): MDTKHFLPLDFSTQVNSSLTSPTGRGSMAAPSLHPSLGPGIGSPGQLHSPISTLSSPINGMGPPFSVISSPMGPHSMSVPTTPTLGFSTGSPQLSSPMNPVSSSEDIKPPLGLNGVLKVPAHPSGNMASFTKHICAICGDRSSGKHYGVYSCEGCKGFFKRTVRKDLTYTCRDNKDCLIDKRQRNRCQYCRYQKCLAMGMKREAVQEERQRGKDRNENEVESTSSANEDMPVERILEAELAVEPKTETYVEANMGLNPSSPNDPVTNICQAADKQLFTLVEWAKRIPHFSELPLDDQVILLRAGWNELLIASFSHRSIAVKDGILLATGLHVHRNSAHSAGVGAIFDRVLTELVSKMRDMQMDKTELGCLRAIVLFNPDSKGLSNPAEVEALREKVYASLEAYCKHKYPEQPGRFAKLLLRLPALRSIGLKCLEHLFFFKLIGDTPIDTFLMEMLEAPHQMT
In short: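 qHTS of the Tox21 10K library in GeneBLAzer RXR-alpha HEK 293T cells carrying a beta-lactamase reporter […]; 16 hr treatment, 9-cis retinoic acid as agonist control, FRET read-out.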

[12] = molecular target: Bile acid receptor (Homo sapiens) (UniProt Q96RI1); test: qHTS assay to identify small molecule antagonists of the farnesoid-X-receptor (FXR) signaling pathway (AID 743217; active = well fitted inhibition curve with a large enough effect in the signal ratio in the repeat runs, not every such curve was filed as active; inconclusive = weak or mixed curves, or effect the other way; inactive = no such curve, though single readings can be large or run the other way; the % refers to the signal ratio; also: potency is read from the fitted curve at half-maximal effect); settings: HEK293T FXR-UAS-bla, beta-lactamase ratio, CDCA-stimulated, 16 h; activity change, negative = inhibition: at 62.6 µM (top of the series) unless noted
Sequence of UniProt Q96RI1 (Q96RI1 whole entry, looked up): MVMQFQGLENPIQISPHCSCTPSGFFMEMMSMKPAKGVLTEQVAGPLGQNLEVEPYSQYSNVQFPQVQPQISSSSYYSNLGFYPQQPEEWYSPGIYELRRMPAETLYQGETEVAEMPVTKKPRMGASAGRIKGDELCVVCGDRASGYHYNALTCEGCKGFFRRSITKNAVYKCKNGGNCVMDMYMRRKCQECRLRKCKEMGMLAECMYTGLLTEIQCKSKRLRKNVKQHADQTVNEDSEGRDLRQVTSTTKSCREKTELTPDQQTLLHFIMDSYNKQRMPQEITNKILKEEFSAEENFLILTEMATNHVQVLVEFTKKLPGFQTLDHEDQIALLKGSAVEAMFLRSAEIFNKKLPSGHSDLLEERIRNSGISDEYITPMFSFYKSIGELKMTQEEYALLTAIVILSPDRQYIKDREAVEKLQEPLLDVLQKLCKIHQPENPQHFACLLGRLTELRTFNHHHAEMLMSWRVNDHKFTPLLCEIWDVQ
In short: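 In this cell-based antagonist screen, inhibition of CDCA-driven (50 uM final) UAS-beta-lactamase expression in HEK 293T cells was measured by FRET fluorescence following 16 h compound exposure at 37 °C.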

[13] = qHTS assay to identify small molecule agonists of the RXR signaling pathway - cell viability counter screen (AID 1159529)
In short: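 Cell viability is measured by CellTiter-Glo luminescence, 30 min at room temperature, in wells already read for beta-lactamase. Engineered HEK 293T cells (RXR-alpha-UAS-bla) are dosed 16 hr at 37 C. Tetraoctyl ammonium bromide serves as positive control.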

[14] = qHTS assay to identify small molecule agonists of the vitamin D receptor (VDR) signaling pathway - cell viability counter screen (AID 743224); settings: VDR-bla HEK293T viability, CellTiter-Glo luminescence, 16 h; activity change, negative = cytotoxicity: at 62.6 µM (top of the series)
In short: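 Here cell health was gauged by luminescent ATP detection (CellTiter-Glo, 30 min RT) in VDR-bla cells that had been incubated with test compounds for 16 h at 37C and 5% CO2.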

[15] = qHTS assay to identify small molecule antagonists of the retinoid acid receptor (RAR) signaling pathway - cell viability counter screen (AID 1159551); also: % is scaled to controls: 0 for no effect and ±100 for the full control effect; nearly all actives have a fitted effect of over 35% in size
In short: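 Seed C3RL4 cells; next day add compound, then retinol to 1 uM final; incubate 6 h at 37 C; add CellTiter-Glo; read luminescence after 30 min at RT.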

[16] = qHTS assay to identify small molecule agonists of the AP-1 signaling pathway (AID 1159526; calls by dose curve; also: % is scaled to controls: 0 for no effect and ±100 for the full control effect); settings: ME-180 (cervical carcinoma) AP-1-bla reporter, beta-lactamase FRET ratio, 5 h; activation: at 76.8 µM (top of the series) unless noted
Tags tell the direction and shape of the fitted curve or compound fluorescence and quenching.

In the case of Clc1ccc(Sc2cc(Cl)c(Cl)cc2Cl)cc1, the Potency [1] is reported as inconclusive: 0.425 µM [cytotoxic, full curve, poor fit], the Potency [2] is reported as inconclusive: 30.1 µM [rising, partial curve] and the activity change, negative = cytotoxicity [3] is reported as inconclusive: -33%. For the same molecule, the Potency [4] was “inactive”, the Potency [5] was inconclusive: 0.477 µM [cytotoxic, single point] and the viability change, negative = cytotoxic [5] was inconclusive: 1.93% [cytotoxic]. The Potency [6] was inconclusive: 54.9 µM [activator] and the Potency [7] was “inactive”.
In the case of CCCCCC/C=C/CCCCCCCC(=O)O, the Potency [8] is reported as “inactive”, the Potency [2] is reported as inconclusive: 0.549 µM [rising, partial curve, poor fit] and the Potency [9] is reported as “inactive”. For the same molecule, the activation [6] was inconclusive: -4.59% and the Potency [7] was inconclusive: 243 nM [inhibitor, single point].
For O=C(CS)Nc1ccccc1, the Potency [6] was “inactive”, the Potency [10] was inconclusive: 0.239 µM [cytotoxic, single point] and the Potency [11] was inconclusive: 15.1 µM [rising, partial curve, poor fit].
In the case of O=c1[nH]c(=O)c2[nH]c(=O)[nH]c2[nH]1, the viability change, negative = cytotoxic [2] is reported as inactive: 18.5% [at 13.2 µM], the activation [6] is reported as inactive: -2.27% [at 6.95 µM] and the activity change, negative = inhibition [7] is reported as inactive: 25.7% [at 8.39 µM].
For COc1ccc2cccc(CCNC(C)=O)c2c1, the Potency [2] was “inactive”, the Potency [6] was “inactive” and the Potency [7] was inconclusive: 211 nM [inhibitor, partial curve, poor fit]. The activation [11] was inconclusive: 2.13% [at 35.3 µM].
With CC(CC(=O)O)CC(C)(C)C (stereo unspecified) the Potency [8] was “inactive”, the Potency [6] was “inactive” and the Potency [7] was “inactive”.
With CC(=O)OCC(=O)[C@@]1(O)CC[C@H]2[C@@H]3CCC4=CC(=O)CC[C@]4(C)[C@H]3C(=O)C[C@@]21C the Potency [3] was inconclusive: 0.119 µM [falling, single point], the activation [4] was inconclusive: -0.436% and the activity change, negative = inhibition [9] was inconclusive: 2.79%. For the same molecule, the Potency [6] was “inactive” and the Potency [7] was “inactive”.
With c1ccc(CN(CC2=NCCN2)c2ccccc2)cc1 the activity change, negative = inhibition [9] was inconclusive: 3.59%, the Potency [6] was “inactive” and the Potency [7] was inconclusive: 33500 nM [inhibitor, single point].
For C=C1c2cccc(O)c2C(O)=C2C(=O)[C@]3(O)C(O)=C(C(N)=O)C(=O)[C@@H](N(C)C)[C@@H]3[C@@H](O)[C@H]12, the Potency [2] was inconclusive: 21.1 µM [rising, partial curve, poor fit], the activity change, negative = inhibition [9] was inconclusive: -36.7% and the Potency [6] was inconclusive: 26.8 µM [rising, single point]. The Potency [7] was inconclusive: 29800 nM [inhibitor, single point].
With CC(C)=CC(=O)C=C(C)C the Potency [4] was “inactive”, the Potency [6] was inconclusive: 4.33 µM [rising, full curve, poor fit] and the Potency [7] was inconclusive: 27.1 nM [inhibitor, full curve, poor fit].
With COC1=CC(=O)C[C@@H](C)[C@]12Oc1c(Cl)c(OC)cc(OC)c1C2=O the viability change, negative = cytotoxic [1] was inconclusive: -32.5% [cytotoxic], the Potency [8] was inconclusive: 24.3 µM and inconclusive: 19.5 nM [inhibitor, full curve] and the Potency [12] was inconclusive: 61.1 µM. For the same molecule, the activity change, negative = inhibition [12] was inconclusive: -25%, the Potency [2] was inconclusive: 0.0086 µM [rising, full curve, poor fit] and the activation [4] was inconclusive: -22.7%. The activity change, negative = inhibition [9] was inconclusive: -53.1% and inconclusive: -62.5% and inconclusive: -34.7%, the Potency [6] was inconclusive: 0.0034 µM [falling, full curve] and the Potency [7] was active: 8.56 µM and active: 19.3 µM.
For C=C(C)C(=O)OCCOCCOC(=O)C(=C)C, the Potency [8] was “inactive”, the Potency [4] was inconclusive: 61.6 µM [fluorescent, single point] and the Potency [6] was inconclusive: 61.6 µM [falling, partial curve, poor fit]. The Potency [10] was “inactive”, the activation [11] was inconclusive: 13.1% and the Potency [13] was “inactive”.
In the case of COCC(=O)O, the Potency [2] is reported as “inactive”, the activity change, negative = inhibition [9] is reported as inconclusive: 1.43% and the Potency [14] is reported as inconclusive: 12.3 µM [cytotoxic, full curve]. The Potency [6] was inconclusive: 54.9 µM [activator, partial curve, poor fit], the Potency [10] was “inactive” and the activation [11] was inconclusive: 20.9%. For the same molecule, the Potency [15] was “inactive”.
For O=C(O)c1ccc(OCCCOc2ccc(C(=O)O)cc2)cc1, the Potency [1] was inconclusive: 33.5 µM [cytotoxic, single point], the Potency [6] was inconclusive: 0.0006 µM [inhibitor, partial curve, poor fit] and the Potency [7] was inconclusive: 13300 nM [inhibitor, single point].
In the case of CC1(C)O[C@@H]2C[C@H]3[C@@H]4C[C@H](F)C5=CC(=O)C=C[C@]5(C)[C@H]4[C@@H](O)C[C@]3(C)[C@]2(C(=O)CO)O1, the Potency [8] is reported as “inactive”, the activation [4] is reported as inconclusive: -12.2% and the Potency [9] is reported as inconclusive: 13.4 µM [fluorescent, partial curve]. The Potency [6] was inconclusive: 0.0013 µM, the Potency [10] was “inactive” and the activation [16] was inconclusive: 15.8% [at 35.3 µM].
With CN1CC(=O)N/C1=N/C(=O)Nc1cccc(Cl)c1 the Potency [9] was “inactive”, the Potency [6] was “inactive” and the Potency [7] was “inactive”. For the same molecule, the Potency [11] was “inactive”.
